Where “and” joins values, the source holds several entries; their conditions need not be identical. Equal entries are not always repeated. Structures can show the parent of a compound that is named as a salt. ± gives the standard deviation of the averaged measurements. In all, about 2,600 compounds were measured (“total cell number (DAPI+ nuclei) relative to DMSO vehicle control”: median about -1.4, lowest 2% from about -23 on). This is one part of the list.
test system: jimpy (Plp1 jimpy) mouse iPSC-derived oligodendrocyte progenitor cells; assay: total cell number (DAPI+ nuclei) relative to DMSO vehicle control (SDs above negative control mean); higher = more surviving cells; details: 10 µM; 3 days

Row | SMILES | total cell number
1 | CCN(CCCc1ccccc1)CCCc1ccccc1 [Alverine Citrate] | 1.03
2 | CN(C)CCN1C(=O)c2cccc3cc(N)cc(c23)C1=O [Amonafide] | -24
3 | CCOc1ccc(Cc2cc([C@@H]3O[C@H](CO)[C@@H](O)[C@H](O)[C@H]3O)ccc2Cl)cc1 [Dapagliflozin] | 0.277
4 | O[C@@H]1CO[C@H]2[C@@H]1OC[C@@H]2O [Isosorbide] | -0.864
5 | COC1=C(OC)C(=O)c2ccccc2C1=O [2,3-Dimethoxy-1,4-naphthoquinone] | -9.97
6 | COc1ccc(/C=C2\COc3ccc(C)cc3C2=O)cc1O | -7.57
7 | Cc1c(O)cccc1C(=O)N[C@@H](CSc1ccccc1)[C@H](O)CN1C[C@H]2CCCC[C@H]2C[C@H]1C(=O)NC(C)(C)C [Nelfinavir mesylate hydrate] | -4.31
8 | Cc1cccc(Nc2nc(-c3ccncc3)cs2)c1 | -7.35
9 | CN(C)CCC(c1ccccc1)c1ccccn1 (stereo unspecified) [Pheniramine Maleate] | 1.68
10 | CN(C)CCC(c1ccccc1)c1ccccn1 (stereo unspecified) [Pheniramine maleate] | -0.942
11 | Nc1ccn([C@@H]2O[C@H](CO)[C@@H](O)[C@H]2O)c(=O)n1 [Cytidine] | -1.69
12 | CCCCC[C@H](CC(=O)NO)C(=O)N[C@H](C(=O)N1CCC[C@H]1CO)C(C)C [Actinonin] | -1.52
13 | Cc1cc(C)cc(NC(=O)Cc2ccc(OC(C)(C)C(=O)O)cc2)c1 [Efaproxiral Sodium] | 1.06
14 | Cc1nc(N=Nc2ccc(S(=O)(=O)O)cc2S(=O)(=O)O)c(COP(=O)(O)O)c(C=O)c1O | -1.17
15 | Cc1ccc(O)c([C@H](CCN(C(C)C)C(C)C)c2ccccc2)c1 [Tolterodine tartrate] | -3.77
16 | C=CCc1ccccc1OCC(O)CNC(C)C (stereo unspecified) [Alprenolol hydrochloride] | -7.1
17 | NC[C@H]1CC[C@H](C(=O)O)CC1 [Tranexamic Acid] | 2.46
18 | CCCCOc1ccc(CC(=O)NO)cc1 [Bufexamac] | -0.0933
19 | CC(=O)OC(C)C[N+](C)(C)C (stereo not drawn) [Acetyl-beta-methylcholine chloride] | -0.0482
20 | CCCCCCCCCCCCCCCCO [1-Hexadecanol] | -0.446
21 | CCN1/C(=C/C(C)=O)Sc2ccc(OC)cc21 | -4.99 ± 1.3

Row | SMILES | total cell number
22 | CN(C)C(=O)N=NC(=O)N(C)C [N,N,N',N'-Tetramethylazodicarboxamide] | -1.91
23 | CCN1CCCC1CNC(=O)c1cc(S(N)(=O)=O)ccc1OC (racemic) [(±)-Sulpiride] | 0.388
24 | CCOC(=O)c1ccc(C#Cc2ccc3c(c2)C(C)(C)CCS3)nc1 [Tazarotene] | -3.46 ± 0.47
25 | CC(C)N(CCC(=O)c1ccc2ccccc2c1)Cc1ccccc1 | -3.25 and -5.72
26 | CC(C)(C)C#Cc1cc(N(C(=O)[C@H]2CC[C@H](C)CC2)[C@H]2CC[C@H](O)CC2)c(C(=O)O)s1 [VX-222 (VCH-222, Lomibuvir)] | -0.556
27 | CCC(C)(C)c1ccc(CC(C)CN2C[C@@H](C)O[C@@H](C)C2)cc1 (stereo partly specified) [Amorolfine HCl] | 5.81
28 | COc1ccc(CCN(C)CCCC(C#N)(c2ccc(OC)c(OC)c2)C(C)C)cc1OC (racemic) [(±)-Verapamil hydrochloride] | -3.87
29 | COc1ccc(CCN(C)CCCC(C#N)(c2ccc(OC)c(OC)c2)C(C)C)cc1OC (racemic) [Verapamil HCl] | -5.69
30 | Cn1c(=O)c(F)c(Nc2ccc(I)cc2F)c2c(=O)n(C[C@@H](O)CO)cnc21 | -10.4
31 | COc1ccc(-c2cc3c(C)nc(N)nc3n([C@H]3CC[C@H](OCCO)CC3)c2=O)cn1 | -11.2
32 | CCOc1nc2cccc(C(=O)OC(C)OC(=O)OC3CCCCC3)c2n1Cc1ccc(-c2ccccc2-c2nn[nH]n2)cc1 (stereo unspecified) [Candesartan Cilexetil] | -0.473
33 | CCOc1nc2cccc(C(=O)OC(C)OC(=O)OC3CCCCC3)c2n1Cc1ccc(-c2ccccc2-c2nn[nH]n2)cc1 (stereo unspecified) [Candesartan cilexetil] | -1.21
34 | CCCCNc1ncc(-c2ccc(CN3CCOCC3)cn2)c(NC2CCC(O)CC2)n1 (stereo unspecified) | -8.26
35 | COc1ccc(-c2oc3c(CC=C(C)C)c(O)cc(O)c3c(=O)c2O)cc1 [Icaritin] | -7.97
36 | CCN1CCC[C@H]1CNC(=O)c1cc(S(N)(=O)=O)ccc1OC [Levosulpiride] | 1.95
37 | Nc1ccc(S(N)(=O)=O)cc1 [Sulfanilamide] | -3.15
38 | O=c1cc(O)cc(/C=C/c2ccc(O)c(O)c2)o1 [Hispidin] | -3.24
39 | CC(CCc1ccc(O)cc1)NCCc1ccc(O)c(O)c1 (stereo unspecified) [Dobutamine hydrochloride] | -4.67
40 | CCCNS(=O)(=O)Nc1ncnc(OCCOc2ncc(Br)cn2)c1-c1ccc(Br)cc1 [Macitentan] | -0.584
41 | N[C@@H](CCC(=O)N[C@@H](CSN=O)C(=O)NCC(=O)O)C(=O)O [S-Nitrosoglutathione] | -1.44
42 | N#CC(=C(/N)Sc1ccccc1N)/C(C#N)=C(\N)Sc1ccccc1N | -6.49

Row | SMILES | total cell number
43 | N#CC(=C(/N)Sc1ccccc1N)/C(C#N)=C(\N)Sc1ccccc1N [U0126 monoethanolate] | -5.49
44 | Cc1[nH]c(/C=C2\C(=O)Nc3ccc(S(=O)(=O)Cc4c(Cl)cccc4Cl)cc32)c(C)c1C(=O)N1CCC[C@@H]1CN1CCCC1 | -27.2
45 | COc1ccc(CNCc2cccc3ccccc23)cc1 | -0.778
46 | NC(=O)[C@@H](CCC(F)(F)F)N(Cc1ccc(-c2ncon2)cc1F)S(=O)(=O)c1ccc(Cl)cc1 | -7.03
47 | C=CCN1CCCC1CNC(=O)c1cc2nn[nH]c2cc1OC (stereo unspecified) [Alizapride HCl] | 1.9
48 | CC(C)c1onc(-c2c(Cl)cccc2Cl)c1COc1ccc(/C=C/c2cccc(C(=O)O)c2)c(Cl)c1 | -1.86
49 | Nc1nc(Nc2ccc(S(N)(=O)=O)cc2)nn1C(=O)c1c(F)cccc1F | -21.7
50 | CC(C)[C@H](NC(=O)c1ccc2ccccc2n1)C(=O)N[C@@H](CC(=O)O)C(=O)COc1c(F)cccc1F | 15.6
51 | CC(C)(Oc1ccc(C2CC2(Cl)Cl)cc1)C(=O)O (stereo unspecified) [Ciprofibrate] | 0.261 ± 1.4
52 | COc1cccc(OC)c1-c1cc(C(=O)NC2(C(=O)O)C3CC4CC(C3)CC2C4)nn1-c1ccc(C(=O)N(C)CCCN(C)C)cc1C(C)C (stereo unspecified) | -0.926
53 | NC(=O)c1cccnc1 [Nicotinamide (Vitamin B3)] | 0.0268
54 | Nc1nccs1 [Aminothiazole] | -0.832
55 | Cn1c(=O)c2c(ncn2CC(O)CO)n(C)c1=O (stereo unspecified) [Dyphylline] | 0.0268
56 | CCCc1nc(C(C)(C)O)c(C(=O)OCc2oc(=O)oc2C)n1Cc1ccc(-c2ccccc2-c2nnn[nH]2)cc1 [Olmesartan Medoxomil] | -0.616
57 | CCCCCCCCCCCCCCCC[N+](C)(C)C [Cetrimonium Bromide (CTAB)] | -16
58 | O=C(NCc1ccc(Oc2ccccc2)cc1)c1nc(-c2cc(Br)c(O)c(Br)c2)no1 | 0.968
59 | Cc1c(Cn2c(C)nc3c(C(=O)O)cc(N4CCOCC4)cc32)cccc1C(F)(F)F | 0.996
60 | CNC1(C)C2CCC(C2)C1(C)C (stereo unspecified) [Mecamylamine hydrochloride] | -1.4
61 | CNC(=O)c1ccccc1Sc1ccc2c(/C=C/c3ccccn3)n[nH]c2c1 [Axitinib] | -15.7
62 | CC(C)(NS(=O)(=O)c1ccc(Oc2ccc(F)cc2)cc1)C(=O)NO | -2.86
63 | CC(CN1c2ccccc2Sc2ccccc21)N(C)C (stereo unspecified) [Promethazine hydrochloride] | -5.88

Row | SMILES | total cell number
64 | CNC(=O)c1ccc(N2C(=S)N(c3cnc(C#N)c(C(F)(F)F)c3)C(=O)C23CCC3)cc1F | 0.421
65 | O=C(c1ccc(OCCN2CCCCC2)cc1)c1c(-c2ccc(O)cc2)sc2cc(O)ccc12 [Raloxifene HCl] | 2.09
66 | O=C(c1ccc(OCCN2CCCCC2)cc1)c1c(-c2ccc(O)cc2)sc2cc(O)ccc12 [Raloxifene hydrochloride] | 1.26
67 | CN(C)c1nc(N)c(C(=O)NC(=N)N)nc1Cl [5-(N,N-Dimethyl)amiloride hydrochloride] | -1.61
68 | CCOC(=O)C1=C(C)NC(C)=C(C(=O)OC)C1c1cccc([N+](=O)[O-])c1 (stereo unspecified) [Nitrendipine] | -0.88 ± 0.89
69 | Cc1nc2c(OCc3ccccc3)cccn2c1CC#N | -1.83
70 | N[C@H](C(=O)O)[C@H](Cc1ccccc1)C(=O)O [L-Beta-threo-benzyl-aspartate] | -0.505
71 | COc1cc(N2CCC(N3CCN(C)CC3)CC2)ccc1Nc1ncc(Cl)c(Nc2ccccc2S(=O)(=O)C(C)C)n1 | -27.1
72 | CC1CCc2cc(F)cc3c(=O)c(C(=O)O)cn1c23 (stereo unspecified) [Flumequine] | -0.852
73 | CCCCOc1ccc(OCCCN2CCOCC2)cc1 [Pramoxine HCl] | 4.05
74 | C[C@@H](O)[C@H]1C(=O)N2C(C(=O)OCOC(=O)C(C)(C)C)=C(SC3CN(C4=NCCS4)C3)[C@H](C)[C@H]12 [Tebipenem Pivoxil] | -9.86
75 | COc1ccc(C(C)=O)c(O)c1 [Paeonol] | -1.45
76 | COc1ccc(-n2nc(C(N)=O)c3c2C(=O)N(c2ccc(N4CCCCC4=O)cc2)CC3)cc1 [Apixaban] | -1.4
77 | Nc1cccc(-c2cc3c(Oc4cccc(O)c4)ncnc3[nH]2)c1 | -14.2
78 | CC(C)[C@H]1CC[C@H](C(=O)N[C@H](Cc2ccccc2)C(=O)O)CC1 [Nateglinide] | 0.101
79 | COc1c(O)cc2c(c1O)[C@@H]1O[C@H](CO)[C@@H](O)[C@H](O)[C@H]1OC2=O [Bergenin] | -0.456
80 | CCCOC(=O)c1c(-c2ccccc2)nc(CC)c(C(=O)SCC)c1CCC | -2.19
81 | CC(C)c1nc(CN(C)C(=O)N[C@H](C(=O)N[C@@H](Cc2ccccc2)C[C@H](O)[C@H](Cc2ccccc2)NC(=O)OCc2cncs2)C(C)C)cs1 [Ritonavir] | -6
